Laboratory results from the supplement of paper PMC3334620.
Over roughly 33,000 sequences, “E-score (-0.5 to 0.5)” has its median near -0.036; the highest 2% begin near 0.37. Some of the results follow.

Target: T1, Yer064c (UniProt P40041)
T1 sequence: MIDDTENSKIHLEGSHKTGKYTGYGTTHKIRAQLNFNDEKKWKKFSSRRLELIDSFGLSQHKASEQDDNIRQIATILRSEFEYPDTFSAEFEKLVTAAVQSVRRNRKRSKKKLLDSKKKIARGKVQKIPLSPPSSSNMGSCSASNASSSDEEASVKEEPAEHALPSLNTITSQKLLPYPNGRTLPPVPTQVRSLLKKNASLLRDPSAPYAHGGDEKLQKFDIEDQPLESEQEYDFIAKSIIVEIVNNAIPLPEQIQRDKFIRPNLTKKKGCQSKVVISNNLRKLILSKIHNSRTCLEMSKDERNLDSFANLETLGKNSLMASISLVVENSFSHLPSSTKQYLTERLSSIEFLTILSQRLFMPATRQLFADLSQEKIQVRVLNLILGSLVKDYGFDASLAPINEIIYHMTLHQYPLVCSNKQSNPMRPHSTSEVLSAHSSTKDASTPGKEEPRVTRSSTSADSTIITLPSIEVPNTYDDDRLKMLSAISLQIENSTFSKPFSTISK
Test: PBM E-score (8-mer binding enrichment) (E-score (-0.5 to 0.5)); higher = stronger / more preferred TF binding; most listed sequences are background and not binding sites
Details: protein concentration: 200 nM; construct: GST-full length
Description: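 Universal 'all 10-mer' protein binding microarrays (Agilent AMADID 015681) probed with GST-tagged S. cerevisiae TFs (full-length or DBD) made by in vitro transcription/translation (PURExpress), about 100-200 nM. Bound TF was detected with fluorescent anti-GST. Each ungapped 8-mer (which stands for itself and its reverse complement) is scored by the PBM enrichment score (E-score), a modified Wilcoxon-Mann-Whitney statistic from -0.5 to +0.5, computed with the Universal PBM Analysis Suite. Scale: above 0.35 generally sequence-specific binding.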

Row | Sequence | PBM E-score
1 | GATGTGCC | -0.119
2 | GACCTGGC | -0.408
3 | AACATGGA | 0.00424
4 | AAGAAGAC | 0.0851
5 | CACAGTGG | 0.036
6 | GGACCGAC | -0.117
7 | AACCCACA | 0.043
8 | CCCGATCA | -0.244
9 | CAGAATTC | 0.0866
10 | GGCGTACA | -0.0682
11 | ATATTCAC | -0.0263
12 | ACGACTTC | 0.324
13 | CCACGTCC | -0.319
14 | CACTTATC | 0.0332
15 | ACTGGTAG | 0.053
16 | CAATTTAA | 0.185
17 | CTGGGCAA | -0.0496
18 | CAAGGGGC | -0.113
19 | ACACAATG | 0.202
20 | ACATCCGA | -0.106
21 | TAATGACA | 0.101
22 | AAGACGCG | -0.217

Row | Sequence | PBM E-score
23 | CGGTTCTC | -0.13
24 | CCGCTACG | -0.206
25 | ACCTGTTG | -0.0987
26 | GAGGCACC | -0.457
27 | CGATCGCG | -0.197
28 | CGTGTTGC | -0.0244
29 | AGTAACTG | -0.0725
30 | AGCAAACT | 0.0618
31 | ACGGACAA | 0.0629
32 | AAAATAGC | -0.258
33 | ACTTTTTC | 0.0284
34 | CAGCCTCA | -0.158
35 | GACCTTAC | -0.0771
36 | CGTGAATA | 0.0635
37 | CCCTATAC | -0.0386
38 | CCCGGTGC | -0.251
39 | CGGAAGCA | -0.135
40 | ACCCCAAG | -0.188
41 | ATCGGACA | -0.0974
42 | ATTGGCGG | -0.0566
43 | GCGGCTGA | -0.0585
44 | TCCGCAAA | -0.0299

Row | Sequence | PBM E-score
45 | CGGATTAG | -0.147
46 | AAGATCTA | -0.144
47 | AACGTCCA | -0.0452
48 | GTTATAGA | 0.0496
49 | AAAAAATG | -0.0204
50 | GGGAAGGA | -0.139
51 | CGGCGGTA | -0.0622
52 | CCAACGGC | -0.252
53 | ATCTAACA | -0.0587
54 | ATGGAGCG | -0.0563
55 | TAGTTCAA | 0.0501
56 | CCTATACG | -0.045
57 | AGTGGTCG | 0.0664
58 | GGAGTCCC | 0.189
59 | AACTCACG | 0.211
60 | TAGTGAGA | 0.103
61 | CTGTGGCA | 0.0335
62 | TAGATCCA | -0.0329
63 | GGGGCCGA | -0.208
64 | ACTATCAC | 0.148
65 | AAGGTACT | 0.0431
66 | TCGCCACA | -0.0758

Row | Sequence | PBM E-score
67 | CGTGATTC | 0.418
68 | ACGGGGGC | -0.231
69 | CCTTTGAA | 0.0176
70 | CATAGTAA | 0.212
71 | ACTCCCCT | 0.136
72 | CGCCACAA | -0.155
73 | GATCCTAC | -0.193
74 | CAAAGTGC | 0.0793
75 | AGGTGTAA | -0.0357
76 | CGCTGGTC | -0.183
77 | ATCTCTGG | -0.143
78 | CCAGACAG | -0.27
79 | TGGTGACA | -0.0923
80 | ATCGCGAT | 0.115
81 | ACTCGTAA | 0.302
82 | CCTGTTAG | -0.00747
83 | ATCTGGCG | 0.149
84 | CCAACAGC | -0.115
85 | GAGGCGGA | -0.0783
86 | AAGTACCC | -0.0413
